# Over roughly 110,000 compounds, “z-score” has its median near -0.1; the highest 2% begin near 2. This is one part of the list. Active and inactive are the calls of the source.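 Rule for the calls: active = z-score in the third read window above 3 or below -3; inactive = the rest.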 Residues, ends and D or L forms follow the SMILES beside them. *: point of attachment. OBn = c1ccc(CO*)cc1
# Biological target: Metabotropic glutamate receptor 8 (Rattus norvegicus) (UniProt P70579)
# Assay: rat mGluR8 modulators via GIRK flux, primary screen, cell-based, thallium flux, HTS (AID 488969)
# Conditions: HEK293 rat mGluR8, GIRK (G protein-gated inwardly rectifying potassium channel) thallium flux, FluoZin2; at 10 µM; stronger effect = higher value; submaximal glutamate (EC20) added with thallium
# UniProt P70579, sequence (P70579 whole entry, looked up): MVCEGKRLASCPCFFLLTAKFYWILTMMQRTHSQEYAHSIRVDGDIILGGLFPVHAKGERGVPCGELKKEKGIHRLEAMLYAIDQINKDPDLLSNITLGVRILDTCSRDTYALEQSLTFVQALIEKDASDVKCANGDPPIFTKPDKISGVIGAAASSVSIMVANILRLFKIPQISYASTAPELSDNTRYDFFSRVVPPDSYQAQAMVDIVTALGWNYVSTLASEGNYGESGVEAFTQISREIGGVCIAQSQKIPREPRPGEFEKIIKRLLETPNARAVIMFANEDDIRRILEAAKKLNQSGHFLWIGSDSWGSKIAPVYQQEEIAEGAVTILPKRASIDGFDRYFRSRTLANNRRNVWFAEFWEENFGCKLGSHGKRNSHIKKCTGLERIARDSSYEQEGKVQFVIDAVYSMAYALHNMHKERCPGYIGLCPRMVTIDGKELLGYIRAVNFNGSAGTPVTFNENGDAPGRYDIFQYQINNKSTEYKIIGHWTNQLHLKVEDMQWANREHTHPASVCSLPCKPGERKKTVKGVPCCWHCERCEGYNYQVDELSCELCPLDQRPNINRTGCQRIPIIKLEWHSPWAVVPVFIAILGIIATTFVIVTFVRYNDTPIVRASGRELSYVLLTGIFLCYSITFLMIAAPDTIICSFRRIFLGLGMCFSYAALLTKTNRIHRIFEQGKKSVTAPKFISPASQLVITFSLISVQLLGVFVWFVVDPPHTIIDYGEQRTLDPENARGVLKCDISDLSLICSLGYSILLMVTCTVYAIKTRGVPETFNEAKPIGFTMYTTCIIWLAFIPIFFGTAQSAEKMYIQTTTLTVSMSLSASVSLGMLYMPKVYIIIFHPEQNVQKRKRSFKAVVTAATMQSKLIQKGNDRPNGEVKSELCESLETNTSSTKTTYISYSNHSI
row,SMILES,z-score
1,O=C(Nc1nnc(COc2ccc(F)cc2)s1)c1cccs1,-0.982
2,CCCc1cc(=O)[nH]c(SCC(=O)N2CCN(S(=O)(=O)c3ccc(Cl)cc3)CC2)n1,-0.0806
3,COc1c(Cl)cc(Cl)cc1CNCCNCC(C)O (configuration not stated),active: 3.74
4,O=C(CCSCCc1ccccn1)Nc1ccc(Br)cc1F,-0.191
5,S=C1Nc2cc(Cl)ccc2Sc2ccccc21,active: 11.3
6,CCC(C)C(N)C(=O)NC(CCC(=O)OCc1ccccc1)C(N)=O (configuration not stated) (H-Ile-Glu(OBn)-NH2; configuration not given here),0.0296
7,Cc1nnc(N(Cc2ccco2)C(=O)c2ccc(C#N)cc2)s1,-0.951
8,CC1(C)CC(=O)C2=C(C1)N1CCCCC1CC2=O (configuration not stated),-0.786
9,CCc1c(C)nc2ncnn2c1N1CCCC(C(=O)Nc2ccc(NC(C)=O)cc2)C1 (configuration not stated),-0.0795
10,COc1ccc(NC(=O)CC2SC(=Nc3ccccc3)NC2=O)cc1 (configuration not stated),-0.128
11,CCn1c2ccccc2c2cc(NC(=O)CSc3nnc(-c4cccc(OC)c4)n3N)ccc21,-0.0921
12,CN(c1ccc(OCC(=O)OCC(=O)Nc2ccccc2)cc1)S(=O)(=O)c1ccc(F)cc1,-1.26
13,Cc1ccccc1N(CC(=O)N/N=C/c1ccc(Cl)cc1)C(=O)c1ccccc1,-0.182
14,O=C(Cc1cccs1)Nc1ccc(C(=O)O)cc1,0.25
15,CCc1cccc(C)c1NC(=O)C(c1ccc(O)cc1)N1CCC1=O (configuration not stated),0.226
16,CCOC(=O)C1=C(N2CCCCC2)c2cc3c(n2C1=O)CCCC3,-1.72
17,c1ccc2c(-c3nnc(SCc4cn5ccccc5n4)o3)c[nH]c2c1,-0.481
18,Cn1c2c(c(=O)n(C)c1=O)[C@@]1(C(=O)Nc3ccccc31)C(C#N)=C(N)O2,0.194
19,COc1ccc(-c2nn(-c3ccccc3)cc2/C=C2/SC(=S)N(Cc3ccco3)C2=O)c(C)c1,0.0595
20,CCN(CC)C(=O)c1ccc(CS(=O)(=O)c2ccc(OC)cc2)o1,0.0481
21,CCN(CC)c1nc2c(s1)C(=O)NCCC2,0.541
22,C=CCOc1c(CNc2ncn[nH]2)cccc1OC,0.502

row,SMILES,z-score
1,O=C(CNc1ccccc1)N/N=C/c1ccc2c(c1)OCCO2,-0.48
2,COc1cccc(-n2nnc3c(=O)n(Cc4ccc(F)cc4)cnc32)c1,-0.217
3,Cc1cccc(OCCNC(=O)c2cccc(Oc3ccc(C(F)(F)F)cc3[N+](=O)[O-])c2)c1,-0.134
4,COc1ccc(S(=O)(=O)O/N=C2\CCSc3ccc(C)cc32)cc1,0.295
5,Cc1ccc(Cl)cc1N1CCN(C(=O)CCS(=O)(=O)c2cccc3nonc23)CC1,0.119
6,COc1ccccc1NC(=O)COc1ccc(/C=N/NC(=O)CSCc2cc(C)cc(C)c2)cc1,-0.137
7,Cc1cc(=O)oc2cc(OCC(=O)OCc3nnc(-c4ccccc4)o3)ccc12,-0.34
8,CCOC(=O)c1c(-c2ccccc2)oc2ccc(O)c(CN3CCCC3)c12,1.41
9,CC(C)c1cc(C(=O)NNC(=S)NCc2ccco2)c(O)c(C(C)C)c1,0.25
10,Cc1c(C(=O)OCC(=O)NCCN2C(=O)CSC2=O)oc2c1ccc1ccccc12,-0.275
11,CC1=CC(C)(C)NC(=S)N1c1cccc(C)c1,0.903
12,COc1ccc(N(CC(O)CN2C(=O)NC(C)(C)C2=O)S(=O)(=O)c2ccc(C)cc2)cc1 (configuration not stated),0.635
13,CCN(CC)S(=O)(=O)c1ccc(C)c(NC(=S)Nc2cccc(S(=O)(=O)N3CCCCCC3)c2)c1,0.0889
14,COCCCNC(=O)CCC(=O)NNc1nc2ccccc2c2nc(-c3ccccc3)nn12,0.614
15,CCOc1cc(C)c(S(=O)(=O)NC2CCCCC2)cc1C,-0.571
16,CC1C/C(=N\Nc2ccc(S(N)(=O)=O)cc2[N+](=O)[O-])CC(C)(C)C1 (configuration not stated),-0.465
17,CN1C(=O)/C(=C2\SC(=S)N(CC3CCCO3)C2=O)c2ccccc21 (configuration not stated),-0.000451
18,Cc1c(CN(C)C(=O)c2sc3cc(Cl)ccc3c2Cl)cnn1C,-0.784
19,Cc1ncc2c(c1OC(=O)c1ccc([N+](=O)[O-])cc1)COC(C)(C)OC2,0.136
20,O=c1c2c(-c3cccs3)csc2ncn1-n1cccc1,0.132
21,CC(C)(C)C(=O)NCCN1C(=O)S/C(=C\c2ccc([N+](=O)[O-])cc2)C1=O,-0.862
22,O=C(Cc1ccccc1[N+](=O)[O-])N1CCN(c2ccccc2F)CC1,0.343

row,SMILES,z-score
1,COc1ccc(Cl)c(Cn2c(NCC(C)O)nc3c2c(=O)n(C)c(=O)n3C)c1 (configuration not stated),-0.64
2,Cc1ccc(NC(=O)CN(C)C(=O)Cn2cc(C(F)(F)F)ccc2=O)cc1,0.152
3,O=C(CCSCc1ccc(Cl)cc1)NCCC1=CCCCC1,-0.242
4,COc1cc(C2C(C#N)=C(N)OC3=C2C(=O)CC(C)(C)C3)c([N+](=O)[O-])cc1OC (configuration not stated),-0.0845
5,CCC(=O)NC(Nc1sc2c(c1C(=O)OC)CCCC2)(C(F)(F)F)C(F)(F)F,-0.426
6,Cc1cc(C)c(C)c(OCC(=O)NCCN(C)C)c1,0.432
7,O=C(COc1ccc2ccccc2c1)NNC(=O)Cc1cccc2ccccc12,-0.78
8,Cc1occc1C(=O)NCCCCNC(=O)c1ccoc1C,0.415
9,Cc1sc(NC(=O)c2ccc(Cl)s2)c(C(N)=O)c1C,0.0498
10,Cc1ccc(C(=O)/C=C/Nc2ccccc2C(N)=O)o1,-0.477
11,CCC(C)Sc1nnc(-c2c[nH]c3ccccc23)n1CCOC (configuration not stated),-0.152
12,CC(C)Cc1nc(SCC(=O)Nc2ccc(S(N)(=O)=O)cc2)n[nH]1,-0.0964
13,Cc1cc(N)n(-c2ncnc3scc(-c4ccc(Cl)cc4)c23)n1,0.703
14,Cc1ccc(C(=O)n2c(-c3ccccc3)cnc2SCC(=O)Nc2ccc(C)cc2C)cc1,-0.0916
15,O=C(/C=C/c1cccnc1)c1ccc(NC(=O)c2cccc(Br)c2)cc1,-0.00474
16,Cc1ccc2nc(NC(=O)CN(C)S(=O)(=O)c3ccc(Br)s3)sc2c1,-0.381
17,CC(=O)Nc1ccc(S(=O)(=O)n2cnc(C)c2)cc1,0.302
18,C/C(Cl)=C\Cn1c(=O)c2c(nc3n2CCS3)n(C)c1=O,0.117
19,Cc1ccc(NC(=O)CCn2cccc2)cc1C,-0.0298
20,COc1cc(/C=N/Nc2ncnc3sc4c(c23)CCC4)ccc1O,-1.15
21,O=C(NCCN1CCOCC1)c1cn(-c2ccccc2)nc1-c1cccs1,1.31
22,Cc1ccc(CNC(=O)C2c3ccccc3C(=O)N3CCc4ccccc4C23)o1 (configuration not stated),-0.749

row,SMILES,z-score
1,CCC(C)c1ccc(OCCCCN2CCOCC2)cc1 (configuration not stated),0.469
2,CN(C)Cc1c(O)c(Cl)cc2c3c(c(=O)oc12)CCCC3,active: -5.65
3,CNC(=S)NNC(=O)c1sccc1OCc1ccc(Cl)cc1Cl,-0.78
4,Cc1cccc(NC(=O)C2(c3ccccc3)CC2(Cl)Cl)c1 (configuration not stated),-0.231
5,O=C(COc1cccc(NC(=O)c2cccc([N+](=O)[O-])c2)c1)c1ccc(F)cc1,0.0439
6,Cn1c(C(=O)N2CCCC(C(=O)NCc3ccc4c(c3)OCO4)C2)cc2sccc21 (configuration not stated),-1.36
7,Cc1cc(C)cc(NC(=O)C(OC(=O)c2cccs2)c2ccccc2)c1 (configuration not stated),-0.336
8,N#Cc1c(C(F)(F)F)cc(C2CC2)nc1N1CCCC1,-0.113
9,CCn1c2ccc(C)cc2c2nc3cc(C(=O)O)ccc3nc21,-0.21
10,O=C(c1ccc(-c2nnc(Nc3cccc(Cl)c3)c3ccccc23)cc1)N1C[C@H]2C[C@H](C1)c1cccc(=O)n1C2,0.0269
11,Cc1ccc([N+](=O)[O-])cc1N=C(c1cccc([N+](=O)[O-])c1)N1CCOCC1,-0.0936
12,O=C(CN1CCN(c2ccccn2)CC1)Nc1cc(C(F)(F)F)ccc1Cl,-1.18
13,CC(=O)NC(Cc1c[nH]c2ccccc12)C(=O)N1CCc2ccccc2C1 (configuration not stated),0.156
14,COCCNC(=O)c1ccc(CS(=O)(=O)c2ccc(Cl)cc2)o1,0.388
15,Oc1ccc(-c2cn3cc(C(F)(F)F)ccc3n2)cc1,0.221
16,CCN(CC)c1cc(C(F)(F)F)nc(-c2ccccn2)n1,-0.321
17,Cc1ccc(S(=O)(=O)N/N=C/c2cccc3c2OCCO3)cc1,-0.232
18,FC(F)(F)c1ccc(Oc2ccc3c(C(F)(F)F)cc(C(F)(F)F)nc3n2)cc1,-0.106
19,O=C(CSc1nnc(Cc2ccccc2)n1-c1ccccc1)N1CCOCC1,-0.213
20,CC(CN1CCOCC1)OC(=O)c1ccc(Br)cc1 (configuration not stated),-0.258
21,COC(=O)c1ccc(C(=O)OC)c(NC(=O)CSc2ccccn2)c1,-0.644
22,Cc1nc(C)c2c(=O)cc(-c3ccccc3)[nH]c2n1,-0.301

row,SMILES,z-score
1,S=C(Nc1ccccc1)c1nc2ccccc2s1,2.64
2,Cc1nnc(SCC(=O)N2CCC(C(N)=O)CC2)s1,-0.513
3,O=C(C1CCN(S(=O)(=O)N2CCOCC2)CC1)N1CCN(Cc2ccccc2)CC1,-0.0538
4,COc1ccc2[nH]c(C)c(CCN3C(=O)OC(C)(C)C3(C)O)c2c1 (configuration not stated),-0.00966
5,Cc1nn(C)c(C)c1S(=O)(=O)N1CCC(C(=O)Nc2ccc3c(c2)OCCO3)CC1,0.0886
6,COCCn1c(SCCN2CCOCC2)nc2c1c(=O)[nH]c(=O)n2C,-0.528
7,Cc1[nH]nc(SCC(=O)NCc2ccc(Cl)cc2)c1[N+](=O)[O-],-0.12
8,COc1ccc(Oc2ncnc3c2ncn3Cc2ccccc2)cc1,-0.262
9,CCOc1cc(NC(=S)NCC(C)C)c(OCC)cc1NC(=O)c1ccco1,-0.188
10,O=C(NCC1CCCO1)c1ccccc1 (configuration not stated),-0.11
11,O=C(O)CSCc1cnn(-c2ccccc2)c1-n1cccc1,0.0139
12,COC(=O)C(Cc1c[nH]c2ccccc12)NC(C)=O (configuration not stated),-0.043
13,O=C(C[n+]1cc(-c2ccccc2)n2c1CCC2)OCc1ccccc1,active: 5.17
14,N#CC(c1ccc(O)cc1)N1CCCCC1 (configuration not stated),-0.281
15,COc1ccc(NS(=O)(=O)c2ccc3nc(COc4ccc(C#N)cc4)[nH]c3c2)cc1,-0.0242
16,COc1ccc(S(=O)(=O)O/N=C2\CCCc3ccccc32)cc1,0.0274
17,COc1ccc2c(c1)c1ncn(CCCN3CCOCC3)c(=O)c1n2C,0.00301
18,Cc1ccc(N/C=C/C(=O)c2ccc(C)cc2)cc1,0.877
19,Cc1ccc(NC(=O)C2CC(=O)n3c(nc4ccccc43)N2)cc1 (configuration not stated),-0.152

# Reference: PubChem BioAssay AID488969 (Vanderbilt High Throughput Screening Facility, 2010)
